Article PMC3760798
Results are given in words; binding and its absence hold for the method and conditions named. For some assays here: Binding seen in cells or lysates may run through a third protein. Some entries that bind do so weakly or less than the wild type. For some assays here: Where a sequence is shown, tags or fusion partners need not be part of it.

Sequences of proteins named here, by UniProt entry; tags and fusion partners are left off. A change or cut given only in a name is not applied to a line headed by its entry. Residues count along the entry.
UniProt P45481: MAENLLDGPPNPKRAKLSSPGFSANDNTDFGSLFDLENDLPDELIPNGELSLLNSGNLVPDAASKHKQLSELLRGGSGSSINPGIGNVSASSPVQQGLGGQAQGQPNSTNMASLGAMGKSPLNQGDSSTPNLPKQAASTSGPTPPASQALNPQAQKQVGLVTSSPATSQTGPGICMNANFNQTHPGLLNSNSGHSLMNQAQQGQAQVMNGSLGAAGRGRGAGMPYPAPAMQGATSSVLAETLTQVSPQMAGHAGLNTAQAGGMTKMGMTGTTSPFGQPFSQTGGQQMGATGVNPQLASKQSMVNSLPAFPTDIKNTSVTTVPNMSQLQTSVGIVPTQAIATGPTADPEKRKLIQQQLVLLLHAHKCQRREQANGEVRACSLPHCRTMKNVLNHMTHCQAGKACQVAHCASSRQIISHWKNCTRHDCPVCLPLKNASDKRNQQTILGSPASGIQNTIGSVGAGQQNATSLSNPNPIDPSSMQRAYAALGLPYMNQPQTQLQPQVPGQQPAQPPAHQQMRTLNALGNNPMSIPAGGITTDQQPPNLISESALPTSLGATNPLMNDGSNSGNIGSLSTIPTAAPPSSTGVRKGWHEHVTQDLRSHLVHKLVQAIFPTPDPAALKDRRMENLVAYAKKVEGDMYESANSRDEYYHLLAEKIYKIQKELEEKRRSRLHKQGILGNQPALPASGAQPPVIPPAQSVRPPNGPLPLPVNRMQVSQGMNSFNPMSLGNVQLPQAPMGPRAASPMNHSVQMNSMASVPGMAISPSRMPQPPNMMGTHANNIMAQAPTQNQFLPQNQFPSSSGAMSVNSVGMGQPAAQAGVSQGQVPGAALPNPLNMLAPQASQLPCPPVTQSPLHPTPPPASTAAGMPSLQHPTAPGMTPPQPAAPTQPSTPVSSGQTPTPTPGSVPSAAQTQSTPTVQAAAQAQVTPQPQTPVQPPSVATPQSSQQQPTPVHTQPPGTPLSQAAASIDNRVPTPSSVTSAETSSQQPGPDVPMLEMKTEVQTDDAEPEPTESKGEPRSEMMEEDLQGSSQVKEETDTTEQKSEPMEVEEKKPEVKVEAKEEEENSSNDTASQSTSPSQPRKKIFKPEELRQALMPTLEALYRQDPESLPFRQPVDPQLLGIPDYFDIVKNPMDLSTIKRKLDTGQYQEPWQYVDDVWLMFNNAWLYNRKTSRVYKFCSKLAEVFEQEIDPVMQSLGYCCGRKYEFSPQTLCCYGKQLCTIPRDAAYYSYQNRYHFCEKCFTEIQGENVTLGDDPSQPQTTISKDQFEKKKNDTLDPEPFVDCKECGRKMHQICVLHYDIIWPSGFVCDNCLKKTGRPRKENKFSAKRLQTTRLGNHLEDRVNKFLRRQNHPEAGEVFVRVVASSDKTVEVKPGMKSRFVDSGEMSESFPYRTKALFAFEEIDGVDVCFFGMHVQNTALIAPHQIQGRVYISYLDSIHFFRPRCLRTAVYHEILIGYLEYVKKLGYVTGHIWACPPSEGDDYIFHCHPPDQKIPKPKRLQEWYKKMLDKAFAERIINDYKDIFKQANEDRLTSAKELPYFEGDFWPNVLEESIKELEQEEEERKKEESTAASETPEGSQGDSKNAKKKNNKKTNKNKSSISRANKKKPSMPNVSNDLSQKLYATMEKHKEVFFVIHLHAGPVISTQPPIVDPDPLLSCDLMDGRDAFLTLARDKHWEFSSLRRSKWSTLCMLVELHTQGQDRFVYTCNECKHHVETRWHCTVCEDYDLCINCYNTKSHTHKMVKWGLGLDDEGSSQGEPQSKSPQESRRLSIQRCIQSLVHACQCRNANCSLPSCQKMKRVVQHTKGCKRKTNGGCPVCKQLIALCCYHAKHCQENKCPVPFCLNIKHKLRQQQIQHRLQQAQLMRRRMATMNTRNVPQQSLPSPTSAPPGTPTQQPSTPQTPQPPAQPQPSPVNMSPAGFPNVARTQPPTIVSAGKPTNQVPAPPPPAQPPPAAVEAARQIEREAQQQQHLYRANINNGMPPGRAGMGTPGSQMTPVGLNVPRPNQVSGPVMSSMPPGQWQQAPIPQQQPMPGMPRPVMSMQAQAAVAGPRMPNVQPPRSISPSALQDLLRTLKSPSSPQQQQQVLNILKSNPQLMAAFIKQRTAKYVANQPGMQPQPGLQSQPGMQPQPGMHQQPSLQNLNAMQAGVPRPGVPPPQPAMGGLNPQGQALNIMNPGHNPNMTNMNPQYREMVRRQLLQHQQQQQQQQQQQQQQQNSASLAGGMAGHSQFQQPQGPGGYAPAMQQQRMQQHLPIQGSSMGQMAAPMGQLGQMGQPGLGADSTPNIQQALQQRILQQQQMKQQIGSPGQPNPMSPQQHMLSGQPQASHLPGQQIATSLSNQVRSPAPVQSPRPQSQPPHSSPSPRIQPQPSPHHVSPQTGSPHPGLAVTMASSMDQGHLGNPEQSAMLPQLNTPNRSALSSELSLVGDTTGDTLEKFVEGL
GST–KIX: residues 586-665 of P45481
UniProt B2RWS6: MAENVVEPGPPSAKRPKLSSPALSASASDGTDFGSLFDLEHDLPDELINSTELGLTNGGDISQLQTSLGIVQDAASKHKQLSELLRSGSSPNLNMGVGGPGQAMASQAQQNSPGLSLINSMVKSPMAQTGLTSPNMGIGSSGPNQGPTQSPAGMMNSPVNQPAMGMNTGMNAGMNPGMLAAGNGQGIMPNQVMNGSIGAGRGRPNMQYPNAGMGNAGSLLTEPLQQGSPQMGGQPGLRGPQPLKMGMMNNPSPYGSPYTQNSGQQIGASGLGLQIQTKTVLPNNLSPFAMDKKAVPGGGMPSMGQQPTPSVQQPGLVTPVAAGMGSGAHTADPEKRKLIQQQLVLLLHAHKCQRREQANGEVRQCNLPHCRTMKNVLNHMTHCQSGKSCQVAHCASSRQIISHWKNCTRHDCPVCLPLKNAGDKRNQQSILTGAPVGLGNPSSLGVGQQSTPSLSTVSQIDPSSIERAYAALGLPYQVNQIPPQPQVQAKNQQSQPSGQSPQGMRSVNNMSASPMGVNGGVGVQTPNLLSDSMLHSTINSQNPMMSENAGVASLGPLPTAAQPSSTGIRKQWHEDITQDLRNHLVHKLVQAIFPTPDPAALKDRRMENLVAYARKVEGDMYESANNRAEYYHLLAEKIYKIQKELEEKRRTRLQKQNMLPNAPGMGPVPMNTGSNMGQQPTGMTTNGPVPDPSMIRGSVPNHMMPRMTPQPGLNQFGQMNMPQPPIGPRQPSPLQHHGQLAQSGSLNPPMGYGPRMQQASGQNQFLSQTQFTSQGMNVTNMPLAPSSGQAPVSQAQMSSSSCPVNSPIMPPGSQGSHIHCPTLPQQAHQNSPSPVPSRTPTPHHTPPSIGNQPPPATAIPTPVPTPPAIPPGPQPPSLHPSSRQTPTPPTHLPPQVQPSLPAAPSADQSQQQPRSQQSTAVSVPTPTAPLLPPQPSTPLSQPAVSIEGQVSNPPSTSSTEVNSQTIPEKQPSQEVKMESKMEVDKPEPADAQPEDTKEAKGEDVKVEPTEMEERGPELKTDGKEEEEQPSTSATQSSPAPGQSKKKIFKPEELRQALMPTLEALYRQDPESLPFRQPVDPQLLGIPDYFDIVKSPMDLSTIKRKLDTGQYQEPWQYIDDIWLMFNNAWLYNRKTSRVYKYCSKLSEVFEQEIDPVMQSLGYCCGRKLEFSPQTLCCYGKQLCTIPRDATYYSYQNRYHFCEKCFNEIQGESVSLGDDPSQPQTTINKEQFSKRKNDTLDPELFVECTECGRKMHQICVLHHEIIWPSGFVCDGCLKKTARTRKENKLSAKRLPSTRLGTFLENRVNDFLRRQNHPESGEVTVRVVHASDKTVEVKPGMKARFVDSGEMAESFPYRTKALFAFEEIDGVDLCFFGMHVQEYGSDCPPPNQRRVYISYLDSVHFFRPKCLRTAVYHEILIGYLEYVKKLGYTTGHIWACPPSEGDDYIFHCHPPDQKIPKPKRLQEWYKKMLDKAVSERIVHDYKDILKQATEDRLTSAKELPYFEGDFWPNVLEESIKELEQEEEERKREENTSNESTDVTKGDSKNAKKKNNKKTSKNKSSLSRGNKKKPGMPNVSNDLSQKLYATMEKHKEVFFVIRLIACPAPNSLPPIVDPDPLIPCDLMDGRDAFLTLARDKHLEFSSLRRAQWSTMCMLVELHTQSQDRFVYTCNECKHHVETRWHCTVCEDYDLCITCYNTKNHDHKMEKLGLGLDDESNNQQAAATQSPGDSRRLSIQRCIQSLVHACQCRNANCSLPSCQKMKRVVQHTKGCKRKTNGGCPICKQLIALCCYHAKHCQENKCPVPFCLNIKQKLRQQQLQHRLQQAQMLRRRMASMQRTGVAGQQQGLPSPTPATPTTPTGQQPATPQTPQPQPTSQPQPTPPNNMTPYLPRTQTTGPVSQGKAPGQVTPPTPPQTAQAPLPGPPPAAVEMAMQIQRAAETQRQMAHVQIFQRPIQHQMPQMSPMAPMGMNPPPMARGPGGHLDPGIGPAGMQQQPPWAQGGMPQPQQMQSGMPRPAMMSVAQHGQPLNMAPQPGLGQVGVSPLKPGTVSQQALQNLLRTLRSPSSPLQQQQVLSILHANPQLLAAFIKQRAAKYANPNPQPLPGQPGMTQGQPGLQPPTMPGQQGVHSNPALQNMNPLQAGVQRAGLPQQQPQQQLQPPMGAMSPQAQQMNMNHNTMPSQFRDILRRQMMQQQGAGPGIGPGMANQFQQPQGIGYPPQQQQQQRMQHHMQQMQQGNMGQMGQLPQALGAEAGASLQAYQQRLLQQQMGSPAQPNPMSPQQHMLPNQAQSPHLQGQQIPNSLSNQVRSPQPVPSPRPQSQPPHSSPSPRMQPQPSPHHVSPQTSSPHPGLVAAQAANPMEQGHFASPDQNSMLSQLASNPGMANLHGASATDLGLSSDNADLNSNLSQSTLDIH

Key:
[1] = target: endogenous CBP (CREB-binding protein) (mouse (endogenous in rela−/− fibroblasts)) (UniProt P45481); assay: co-IP; nuclear extracts of RelA(wt/mutants) reconstituted rela−/− cells, unstimulated or stimulated with TNFα (5 ng/ml; 15, 30, 45 min); anti-CBP, anti-p300 or anti-RelA antibody, protein-G beads; immunoblot for RelA or CBP
[2] = target: endogenous p300 (mouse (endogenous in rela−/− fibroblasts)) (UniProt B2RWS6); assay: as above
[3] = target: T1, GST-RelA fragment (Lys425–Pro490) Phe473Ala (mouse) (UniProt Q04207); assay: pull-down; GST-RelA fragments (20 µg) on glutathione sepharose beads with purified TAZ1 (10 µg); 20 mM Tris pH 7.5, 150 mM NaCl, 0.5 mM DTT; 4°C, 30 min; washes with 0.3% TritonX-100; SDS-PAGE; both purified
T1 sequence: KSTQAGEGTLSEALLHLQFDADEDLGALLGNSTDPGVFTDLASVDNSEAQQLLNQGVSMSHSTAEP

[4] = target: T2, GST-RelA(477–504) (mouse) (UniProt Q04207); assay: as above
T2 sequence: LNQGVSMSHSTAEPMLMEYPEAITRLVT

[5] = target: T3, GB1-tagged RelA–TA2 fragment 425–508 (F473A) (mouse) (UniProt Q04207); assay: condition: 10 to 18 µM of RelA–TA2 peptide in the cell and 169 to 185 µM TAZ1 in the syringe; ITC; TAZ1 (169 to 185 µM) in the syringe, GB1-tagged RelA–TA2 peptide (10 to 18 µM) in the cell; 25°C; 20 mM Tris pH 8.0, 150 mM NaCl, 1 mM DTT; single-binding site model; both purified
T3 sequence: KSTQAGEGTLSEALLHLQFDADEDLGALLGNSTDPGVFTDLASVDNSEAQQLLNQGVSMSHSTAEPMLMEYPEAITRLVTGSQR

GST–KIX (mouse) = GST–KIX (mouse) (UniProt P45481); assay: pull-down; in vitro purified GST–KIX or GST–TAZ1 used to pull down nRelA from nuclear extracts of wild-type 3T3 cells or of RelA(wt/mutants) reconstituted rela−/− cells stimulated with TNFα for 30 min; RelA immunoblot; only the target purified

Row | Substance | binding [1] | binding [2] | also measured
1 | RelA(Ser276Ala), full length, in reconstituted rela−/− cells (from UniProt Q04207 1-549) | binds | binds | –
2 | RelA(Ser467Ala), in reconstituted rela−/− cells (from UniProt Q04207 1-549) | binds | binds | –
3 | TAZ1 domain of mouse CBP (residues 340–439) (from UniProt P45481 340-439) (domain or fragment) | – | – | binding [3]: no binding; binding [4]: binds weakly; binding [5]: no binding
4 | nuclear-RelA (nRelA) of wild-type 3T3 cells (from UniProt Q04207 1-549) | – | – | binding (GST–KIX (mouse)): binds

The next lines start with results.

Row | binding [1] | binding [2] | Substance | also measured
5 | binds | binds | RelA(Leu449Ala+Phe473Ala), full length, in reconstituted rela−/− cells (from UniProt Q04207 1-549) | –
6 | binds | – | RelA(Leu449Ala+Phe473Ala+Ser467Ala), full length, in reconstituted rela−/− cells (from UniProt Q04207 1-549) | –
